# Measurements: the supplement of paper PMC8728848
# Some of the results follow.
# B1: AT5G01260(PC)(40) (Arabidopsis thaliana), Q9LFB0 (protein)
# chain: MIGIGRTLTSSSPSKIILEDLPPGIYRYGTEIFTSVPRKTFHHIKFLRLDSAQSSRILKPVPLRSSSIKDSQVNVEDEEIEASNKTVRVRFQLRKECVFGEHFFIVGDDPVFGGLWDPETALPLNWSDGNVWTVDLDLPVGRLVEFKLLLKAQTGEILWQPGPNRALETWETNKTIRICEDWDNADLQMMIEEDFVPYTNISSIGSEDEDEVLGSVQQNSSVVAVENAGYVSDESAQNSSFSIQSEKTMEPSNGALTAREVIKEAMFTEEESPVLVPGLIPLSDLDNEQVEVINEGKAETFPEVDKKQEPKAERNKKAKVKAISLFEKSEQEAVKSVEQRQYNAVEEEQQRLETEPLGTPDVLFENDIQWGRRTLYKLLSNFRLF
# Tests used:
# Assay in all cases: glycan array binding signal (z-score within array); higher = stronger binding
# Conditions in all cases: glycan notation: IUPAC condensed, linker removed
# [1] = target: Fuc(a1-2)[GalNAc(a1-3)]Gal(b1-3)GlcNAc(b1-3)GalNAc
# How it was run: (§1)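 The Consortium for Functional Glycomics database supplied 3228 glycan arrays, of which those lacking an available protein sequence were dropped. The binding signal, a within-array Z-score, was averaged across arrays of the same protein sequence and across linkers. Negative scores can be read as non-binding.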
# [2] = target: Fuc(a1-2)[GalNAc(a1-3)]Gal(b1-3)GlcNAc(b1-6)GalNAc
# How it was run: as §1
# [3] = target: Fuc(a1-2)[GalNAc(a1-3)]Gal(b1-4)Glc
# How it was run: as §1
# [4] = target: Fuc(a1-2)[GalNAc(a1-3)]Gal(b1-4)GlcNAc
# How it was run: as §1
# [5] = target: Fuc(a1-2)[GalNAc(a1-3)]Gal(b1-4)GlcNAc(b1-2)Man
# How it was run: as §1
# [6] = target: Fuc(a1-2)[GalNAc(a1-3)]Gal(b1-4)GlcNAc(b1-2)Man(a1-3)[Fuc(a1-2)[GalNAc(a1-3)]Gal(b1-4)GlcNAc(b1-2)Man(a1-6)]Man(b1-4)GlcNAc(b1-4)GlcNAc
# How it was run: as §1
# [7] = target: Fuc(a1-2)[GalNAc(a1-3)]Gal(b1-4)GlcNAc(b1-2)Man(a1-3)[Fuc(a1-2)[GalNAc(a1-3)]Gal(b1-4)GlcNAc(b1-2)Man(a1-6)]Man(b1-4)GlcNAc(b1-4)[Fuc(a1-6)]GlcNAc
# How it was run: as §1
# [8] = target: Fuc(a1-2)[GalNAc(a1-3)]Gal(b1-4)GlcNAc(b1-3)Gal(b1-4)GlcNAc
# How it was run: as §1
# [9] = target: Fuc(a1-2)[GalNAc(a1-3)]Gal(b1-4)GlcNAc(b1-3)Gal(b1-4)GlcNAc(b1-3)Gal(b1-4)GlcNAc
# How it was run: as §1
# [10] = target: Fuc(a1-2)[GalNAc(a1-3)]Gal(b1-4)GlcNAc(b1-3)GalNAc
# How it was run: as §1
# [11] = target: Fuc(a1-2)[GalNAc(a1-3)]Gal(b1-4)GlcNAc(b1-3)[Fuc(a1-2)[GalNAc(a1-3)]Gal(b1-4)GlcNAc(b1-6)]GalNAc
# How it was run: as §1
# [12] = target: Fuc(a1-2)[GalNAc(a1-3)]Gal(b1-4)GlcNAc(b1-6)GalNAc
# How it was run: as §1
# [13] = target: Fuc(a1-2)[GalNAc(a1-3)]Gal(b1-4)[Fuc(a1-3)]GlcNAc
# How it was run: as §1
# [14] = target: Fuc(a1-2)[GalNAc(a1-3)]Gal(b1-4)[Fuc(a1-3)]GlcNAc(b1-3)GalNAc
# How it was run: as §1
# [15] = target: Fuc(a1-2)[GalNAc(a1-4)]Gal(b1-4)GlcNAc
# How it was run: as §1
# [16] = target: Fuc(a1-2)[GalNAc(b1-3)]Gal
# How it was run: as §1
# [17] = target: Fuc(a1-3)GlcNAc
# How it was run: as §1
# [18] = target: Fuc(a1-3)[Gal(b1-4)]Glc6S
# How it was run: as §1
# [19] = target: Fuc(a1-3)[Gal(b1-4)]GlcNAc
# How it was run: as §1
# [20] = target: Fuc(a1-3)[Gal(b1-4)]GlcNAc(b1-2)Man
# How it was run: as §1
# [21] = target: Fuc(a1-3)[Gal(b1-4)]GlcNAc(b1-2)Man(a1-3)[Fuc(a1-3)[Gal(b1-4)]GlcNAc(b1-2)Man(a1-6)]Man(b1-4)GlcNAc(b1-4)GlcNAc
# How it was run: as §1
# [22] = target: Fuc(a1-3)[Gal(b1-4)]GlcNAc(b1-2)Man(a1-3)[Fuc(a1-3)[Gal(b1-4)]GlcNAc(b1-2)Man(a1-6)]Man(b1-4)GlcNAc(b1-4)[Fuc(a1-6)]GlcNAc
# How it was run: as §1
# [23] = target: Fuc(a1-3)[Gal(b1-4)]GlcNAc(b1-3)Gal(b1-3)[Fuc(a1-4)]GlcNAc
# How it was run: as §1
# [24] = target: Fuc(a1-3)[Gal(b1-4)]GlcNAc(b1-3)Gal(b1-4)[Fuc(a1-3)]GlcNAc
# How it was run: as §1
# [25] = target: Fuc(a1-3)[Gal(b1-4)]GlcNAc(b1-3)Gal(b1-4)[Fuc(a1-3)]GlcNAc(b1-3)Gal(b1-4)[Fuc(a1-3)]GlcNAc
# How it was run: as §1
# [26] = target: Fuc(a1-3)[Gal(b1-4)]GlcNAc(b1-3)GalNAc
# How it was run: as §1
# [27] = target: Fuc(a1-3)[Gal(b1-4)]GlcNAc(b1-6)GalNAc
# How it was run: as §1
# [28] = target: Fuc(a1-3)[Gal(b1-4)]GlcNAc(b1-6)[Gal(b1-3)GlcNAc(b1-3)]Gal(b1-4)Glc
# How it was run: as §1
# [29] = target: Fuc(a1-3)[Gal(b1-4)]GlcNAc6S
# How it was run: as §1
# [30] = target: Fuc(a1-3)[Gal3S(b1-4)]Glc
# How it was run: as §1
# [31] = target: Fuc(a1-3)[Gal3S(b1-4)]GlcNAc
# How it was run: as §1
# [32] = target: Fuc(a1-3)[Gal3S(b1-4)]GlcNAc6S
# How it was run: as §1
# [33] = target: Fuc(a1-3)[GalNAc(b1-4)]GlcNAc
# How it was run: as §1
# [34] = target: Fuc(a1-3)[GalNAc(b1-4)]GlcNAc6S
# How it was run: as §1
# [35] = target: Fuc(a1-4)GlcNAc
# How it was run: as §1
# [36] = target: Fuc(b1-3)GlcNAc
# How it was run: as §1
# [37] = target: Gal(a1-2)Gal
# How it was run: as §1
binder,measurement,setting,value
B1,glycan array binding signal (z-score),[1],-0.059
same,glycan array binding signal (z-score),[2],-0.243
same,glycan array binding signal (z-score),[3],-0.528
same,glycan array binding signal (z-score),[4],-0.274
same,glycan array binding signal (z-score),[5],-0.605
same,glycan array binding signal (z-score),[6],-0.648
same,glycan array binding signal (z-score),[7],0.423
same,glycan array binding signal (z-score),[8],-0.529
same,glycan array binding signal (z-score),[9],0.105
same,glycan array binding signal (z-score),[10],-0.201
same,glycan array binding signal (z-score),[11],-0.227
same,glycan array binding signal (z-score),[12],-0.387
same,glycan array binding signal (z-score),[13],-0.127
same,glycan array binding signal (z-score),[14],7.04
same,glycan array binding signal (z-score),[15],-0.092
same,glycan array binding signal (z-score),[16],0.612
same,glycan array binding signal (z-score),[17],-0.163
same,glycan array binding signal (z-score),[18],-0.156
same,glycan array binding signal (z-score),[19],0.135
same,glycan array binding signal (z-score),[20],-0.312
same,glycan array binding signal (z-score),[21],-0.356
same,glycan array binding signal (z-score),[22],0.084
same,glycan array binding signal (z-score),[23],0.431
same,glycan array binding signal (z-score),[24],-0.975
same,glycan array binding signal (z-score),[25],1.89
same,glycan array binding signal (z-score),[26],-0.886
same,glycan array binding signal (z-score),[27],-0.158
same,glycan array binding signal (z-score),[28],0.008
same,glycan array binding signal (z-score),[29],-0.251
same,glycan array binding signal (z-score),[30],0.133
same,glycan array binding signal (z-score),[31],-0.031
same,glycan array binding signal (z-score),[32],-0.043
same,glycan array binding signal (z-score),[33],1.78
same,glycan array binding signal (z-score),[34],-0.487
same,glycan array binding signal (z-score),[35],0.262
same,glycan array binding signal (z-score),[36],-0.73
same,glycan array binding signal (z-score),[37],-0.201
